# According to patent publication US10376475B2, “Method of use” (Dermavant Sciences GmbH, priority 2014, dated 2019):
# Tested on: IL-17A
# Experiment: Skin-Resident Immune Cell Activation: ex vivo human skin explants under Th17-polarizing conditions, IL-17A qPCR
# Details: compound 1 10 μM, one day pretreatment, 24 hrs post stimulation, relative to vehicle-treated (0.2% DMSO)
# Excerpt: In this example, we investigate the ability of compound 1 to suppress the release of IL-17A from ex vivo human skin challenged with a pro-inflammatory Th17-skewing cocktail.
# Stimulation of skin-resident immune cells in ex vivo human skin explants leads to the production of pro-inflammatory cytokines, including but not limited to IL-17A, IL-17F, and IL-22, thereby providing a novel model system with which to evaluate immunomodulatory therapeutics targeting skin inflammatory processes.
# The ability of a test compounds to modulate the expression of pro-inflammatory cytokines was assessed using the skin-Resident Immune Cell Activation method. Ex vivo human skin obtained from abdominoplasty surgery was processed to remove fat and the tissue dermatomed to ˜750 microns. […]
# Total RNA was isolated from about 30-40 mg of tissue using Qiagen's (Cat #74106) Mini RNA Isolation kit. […] For each technical replicate, 100 ng of RNA was used as template in a 20 uL PCR volume using Applied Biosciences RNA-to-CT 1 Step kit (AB Catalog #4392938) as well as the specific TaqMan probe for each gene to be quantified. […]
# Relative gene expression data were averaged across triplicate biological replicates from PCR amplification run in technical triplicates. All data were normalized to untreated control samples (set to 1), and the average fold change (+/−SEM) calculated for each graph. […]
structure (smiles),measurement,value
CC(C)c1c(O)cc(/C=C/c2ccccc2)cc1O [Compound 1],IL-17A gene expression,reduced the level of IL-17A gene expression
